# The other results are listed elsewhere or left out.
# B1: Clec2 (Mus musculus), Q9JL99 (protein)
# chain: MQDEDGYITLNIKPRKQALSSAEPASSWWRVMALVLLISSMGLVVGLVALGIMSVTQQKYLLAEKENLSATLQQLAKKFCQELIRQSEIKTKSTFEHKCSPCATKWRYHGDSCYGFFRRNLTWEESKQYCTEQNATLVKTASQSTLDYIAERITSVRWIGLSRQNSKKDWMWEDSSVLRKNGINLSGNTEENMNCAYLHNGKIHPASCKERHYLICERNAGMTRVDQLL
# Experiments:
# Experiment in all cases: glycan array binding signal (z-score within array); higher = stronger binding
# Details in all cases: glycan notation: IUPAC condensed, linker removed
# [1] = molecular target: Gal3S(b1-3)[Fuc(a1-4)]GlcNAc
# Procedure, shortened: (§1)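 Negative Z-scores can be read as non-binding. The Z-score is calculated within each array and then averaged across arrays of one protein sequence at different concentrations or buffers and across linkers. Arrays, 3228 in all, were curated from the Consortium for Functional Glycomics database and kept only where the protein sequence was available.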
# Gal3S(b1-4)Glc = molecular target: Gal3S(b1-4)Glc
# Procedure, shortened: as §1
# Gal3S(b1-4)Glc6S = molecular target: Gal3S(b1-4)Glc6S
# Procedure, shortened: as §1
# Gal3S(b1-4)GlcNAc = molecular target: Gal3S(b1-4)GlcNAc
# Procedure, shortened: as §1
# [2] = molecular target: Gal3S(b1-4)[Fuc(a1-3)]Glc6S
# Procedure, shortened: as §1
# [3] = molecular target: Gal3S(b1-4)[Fuc(a1-3)]GlcNAc
# Procedure, shortened: as §1
# [4] = molecular target: Gal3S(b1-4)[Fuc(a1-3)]GlcNAc6S
# Procedure, shortened: as §1
# Gal3S4S(b1-4)GlcNAc = molecular target: Gal3S4S(b1-4)GlcNAc
# Procedure, shortened: as §1
# Gal3S6S(b1-4)GlcNAc = molecular target: Gal3S6S(b1-4)GlcNAc
# Procedure, shortened: as §1
# Gal3S6S(b1-4)GlcNAc6S = molecular target: Gal3S6S(b1-4)GlcNAc6S
# Procedure, shortened: as §1
# Gal4S(b1-4)GlcNAc = molecular target: Gal4S(b1-4)GlcNAc
# Procedure, shortened: as §1
# Gal4S6S(b1-4)GlcNAc = molecular target: Gal4S6S(b1-4)GlcNAc
# Procedure, shortened: as §1
# Gal6P(b1-4)GlcNAc = molecular target: Gal6P(b1-4)GlcNAc
# Procedure, shortened: as §1
# Gal6S(b1-3)GlcNAc = molecular target: Gal6S(b1-3)GlcNAc
# Procedure, shortened: as §1
# Gal6S(b1-3)GlcNAc6S = molecular target: Gal6S(b1-3)GlcNAc6S
# Procedure, shortened: as §1
# Gal6S(b1-4)Glc = molecular target: Gal6S(b1-4)Glc
# Procedure, shortened: as §1
# Gal6S(b1-4)Glc6S = molecular target: Gal6S(b1-4)Glc6S
# Procedure, shortened: as §1
# Gal6S(b1-4)GlcNAc = molecular target: Gal6S(b1-4)GlcNAc
# Procedure, shortened: as §1
# Gal6S(b1-4)GlcNAc6S = molecular target: Gal6S(b1-4)GlcNAc6S
# Procedure, shortened: as §1
# GalNAc(a1-3)Gal = molecular target: GalNAc(a1-3)Gal
# Procedure, shortened: as §1
# GalNAc(a1-3)GalNAc = molecular target: GalNAc(a1-3)GalNAc
# Procedure, shortened: as §1
# [5] = molecular target: GalNAc(a1-3)GalNAc(b1-3)Gal(a1-4)Gal(b1-4)Glc
# Procedure, shortened: as §1
# [6] = molecular target: GalNAc(a1-3)GalNAc(b1-3)Gal(a1-4)Gal(b1-4)GlcNAc
# Procedure, shortened: as §1
# GalNAc(b1-3)Gal = molecular target: GalNAc(b1-3)Gal
# Procedure, shortened: as §1
# [7] = molecular target: GalNAc(b1-3)Gal(a1-4)Gal(b1-4)GlcNAc
# Procedure, shortened: as §1
# [8] = molecular target: GalNAc(b1-3)Gal(a1-4)Gal(b1-4)GlcNAc(b1-3)Gal(b1-4)Glc
# Procedure, shortened: as §1
# [9] = molecular target: GalNAc(b1-3)Gal(a1-6)Gal(b1-4)Glc
# Procedure, shortened: as §1
# GalNAc(b1-3)GalNAc = molecular target: GalNAc(b1-3)GalNAc
# Procedure, shortened: as §1
# GalNAc(b1-3)GlcNAc = molecular target: GalNAc(b1-3)GlcNAc
# Procedure, shortened: as §1
# GalNAc(b1-4)Gal(b1-4)Glc = molecular target: GalNAc(b1-4)Gal(b1-4)Glc
# Procedure, shortened: as §1
# GalNAc(b1-4)GlcNAc = molecular target: GalNAc(b1-4)GlcNAc
# Procedure, shortened: as §1
# [10] = molecular target: GalNAc(b1-4)GlcNAc(b1-2)Man
# Procedure, shortened: as §1
# [11] = molecular target: GalNAc(b1-4)GlcNAc(b1-2)Man(a1-3)[GalNAc(b1-4)GlcNAc(b1-2)Man(a1-6)]Man(b1-4)GlcNAc(b1-4)GlcNAc
# Procedure, shortened: as §1
# [12] = molecular target: GalNAc(b1-4)GlcNAc(b1-3)GalNAc(b1-4)GlcNAc
# Procedure, shortened: as §1
# GalNAc(b1-4)GlcNAc6S = molecular target: GalNAc(b1-4)GlcNAc6S
# Procedure, shortened: as §1
# GalNAc(b1-6)GalNAc = molecular target: GalNAc(b1-6)GalNAc
# Procedure, shortened: as §1
# GalNAc3S(b1-4)GlcNAc = molecular target: GalNAc3S(b1-4)GlcNAc
# Procedure, shortened: as §1
# GalNAc3S(b1-4)GlcNAc3S = molecular target: GalNAc3S(b1-4)GlcNAc3S
# Procedure, shortened: as §1
# [13] = molecular target: GalNAc3S(b1-4)[Fuc(a1-3)]GlcNAc
# Procedure, shortened: as §1
# GalNAc4S6S(b1-4)GlcNAc = molecular target: GalNAc4S6S(b1-4)GlcNAc
# Procedure, shortened: as §1
# GalNAc6S(b1-4)GlcNAc = molecular target: GalNAc6S(b1-4)GlcNAc
# Procedure, shortened: as §1
# Glc(a1-4)Glc = molecular target: Glc(a1-4)Glc
# Procedure, shortened: as §1
# [14] = molecular target: Glc(a1-4)Glc(a1-4)Glc(a1-4)Glc
# Procedure, shortened: as §1
# Glc(a1-6)Glc(a1-6)Glc = molecular target: Glc(a1-6)Glc(a1-6)Glc
# Procedure, shortened: as §1
# [15] = molecular target: Glc(a1-6)Glc(a1-6)Glc(a1-6)Glc
# Procedure, shortened: as §1
binder,measurement,setting,value
B1,glycan array binding signal (z-score),[1],0.009
same,glycan array binding signal (z-score),Gal3S(b1-4)Glc,1.36
same,glycan array binding signal (z-score),Gal3S(b1-4)Glc6S,3.71
same,glycan array binding signal (z-score),Gal3S(b1-4)GlcNAc,0.642
same,glycan array binding signal (z-score),[2],1.03
same,glycan array binding signal (z-score),[3],-0.092
same,glycan array binding signal (z-score),[4],2.96
same,glycan array binding signal (z-score),Gal3S4S(b1-4)GlcNAc,2
same,glycan array binding signal (z-score),Gal3S6S(b1-4)GlcNAc,2.42
same,glycan array binding signal (z-score),Gal3S6S(b1-4)GlcNAc6S,4.08
same,glycan array binding signal (z-score),Gal4S(b1-4)GlcNAc,-0.404
same,glycan array binding signal (z-score),Gal4S6S(b1-4)GlcNAc,1.55
same,glycan array binding signal (z-score),Gal6P(b1-4)GlcNAc,3.62
same,glycan array binding signal (z-score),Gal6S(b1-3)GlcNAc,0.174
same,glycan array binding signal (z-score),Gal6S(b1-3)GlcNAc6S,3.2
same,glycan array binding signal (z-score),Gal6S(b1-4)Glc,0.295
same,glycan array binding signal (z-score),Gal6S(b1-4)Glc6S,0.896
same,glycan array binding signal (z-score),Gal6S(b1-4)GlcNAc,0.012
same,glycan array binding signal (z-score),Gal6S(b1-4)GlcNAc6S,2.13
same,glycan array binding signal (z-score),GalNAc(a1-3)Gal,-0.406
same,glycan array binding signal (z-score),GalNAc(a1-3)GalNAc,-0.674
same,glycan array binding signal (z-score),[5],-0.489
same,glycan array binding signal (z-score),[6],-0.199
same,glycan array binding signal (z-score),GalNAc(b1-3)Gal,-0.428
same,glycan array binding signal (z-score),[7],0.28
same,glycan array binding signal (z-score),[8],-0.625
same,glycan array binding signal (z-score),[9],-0.858
same,glycan array binding signal (z-score),GalNAc(b1-3)GalNAc,-0.731
same,glycan array binding signal (z-score),GalNAc(b1-3)GlcNAc,-0.622
same,glycan array binding signal (z-score),GalNAc(b1-4)Gal(b1-4)Glc,1.12
same,glycan array binding signal (z-score),GalNAc(b1-4)GlcNAc,-0.069
same,glycan array binding signal (z-score),[10],-0.451
same,glycan array binding signal (z-score),[11],-0.82
same,glycan array binding signal (z-score),[12],-0.932
same,glycan array binding signal (z-score),GalNAc(b1-4)GlcNAc6S,0.297
same,glycan array binding signal (z-score),GalNAc(b1-6)GalNAc,-0.499
same,glycan array binding signal (z-score),GalNAc3S(b1-4)GlcNAc,-0.511
same,glycan array binding signal (z-score),GalNAc3S(b1-4)GlcNAc3S,0.566
same,glycan array binding signal (z-score),[13],-0.065
same,glycan array binding signal (z-score),GalNAc4S6S(b1-4)GlcNAc,0.817
same,glycan array binding signal (z-score),GalNAc6S(b1-4)GlcNAc,-0.522
same,glycan array binding signal (z-score),Glc(a1-4)Glc,-0.166
same,glycan array binding signal (z-score),[14],0.128
same,glycan array binding signal (z-score),Glc(a1-6)Glc(a1-6)Glc,-0.368
same,glycan array binding signal (z-score),[15],-0.198

# From the supplement of paper PMC8728848
